# Hit rate of the full screen: of about 370,000 compounds, about 150 (0.041%) were called active. The shares of active, inactive and inconclusive entries below differ from those in the screen. The call rests on the fitted dose curve; in most records, active means well fitted inhibition curve with a large enough effect; inconclusive means small, poorly fitted or top-dose-only effect; inactive means flat fitted curve, though single readings scatter. No potency is given beside an inconclusive call; the fits are too rough.
# Target: Beta-lactamase (Escherichia coli (strain K12)) (UniProt P00811)
# Assay: qHTS Inhibitors of AmpC Beta-Lactamase (assay with detergent); further: nearly all actives have a fitted effect of over 25% in size
# Conditions: AmpC hydrolysis of nitrocefin, absorbance 480 nm, 0.01% Triton; series mostly up to 114 µM
# Procedure, shortened: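 AmpC (5.3 nM in the dispensed reagent) in 20 mM phosphate pH 7.0 with 0.01% (detergent screen) or 0.0001% Triton X-100 was preincubated with compounds for 15 min at room temperature. Nitrocefin was then added from an 800 uM solution, and hydrolysis was followed at 480 nm.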
# Potency means the concentration at half of the fitted maximal effect; tags describe the fitted curve by direction and shape.
# Sequence of UniProt P00811 (P00811 whole entry, looked up): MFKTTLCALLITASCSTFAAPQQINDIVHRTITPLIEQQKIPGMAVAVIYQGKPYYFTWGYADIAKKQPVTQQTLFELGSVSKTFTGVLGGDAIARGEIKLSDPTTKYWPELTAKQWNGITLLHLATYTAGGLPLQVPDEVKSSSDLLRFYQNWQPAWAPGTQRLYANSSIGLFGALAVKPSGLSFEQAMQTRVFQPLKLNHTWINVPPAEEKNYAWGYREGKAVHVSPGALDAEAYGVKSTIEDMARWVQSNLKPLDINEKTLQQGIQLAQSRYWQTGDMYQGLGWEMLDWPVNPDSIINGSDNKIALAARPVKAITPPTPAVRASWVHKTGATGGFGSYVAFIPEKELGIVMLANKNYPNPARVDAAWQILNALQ
row,Compound,Potency
1,O=C(CN1CCN(S(=O)(=O)c2ccc(Br)cc2)CC1)Nc1ccc(F)cc1F,inactive
2,COc1cccc(-n2c(SCC(=O)N3CCc4ccccc43)nnc2-c2c[nH]c3ccccc23)c1,"inconclusive [inhibitor, full curve, poor fit]"
3,Cc1cc(C)nc(SCc2csc(-c3ccccc3)n2)n1,inactive
4,CC1CC(C)CN(C(=O)CNC(=O)c2sc3ccccc3c2Cl)C1 (centres undefined),"inconclusive [inhibitor, full curve, poor fit]"
5,C[C@H](NC(=O)c1nc[nH]c1C(=O)NCC(=O)OCc1ccccc1)C(=O)OC(C)(C)C,"inconclusive [inhibitor, full curve, poor fit]"
6,CN1CCN(S(=O)(=O)c2ccc(Sc3nc4ccccc4[nH]3)c3nsnc23)CC1,"inconclusive [inhibitor, full curve, poor fit]"
7,CC(=O)NC(CCS(C)(=O)=O)C(=O)Nc1ccc(Cl)c(Cl)c1 (centres undefined),"inconclusive [inhibitor, full curve, poor fit]"
8,CCOc1ccc(N(CC(=O)NC2CCCCC2)C(=O)CCC(=O)Nc2cc(C)ccn2)cc1,"inconclusive [inhibitor, full curve, poor fit]"
9,CNC(=O)COC(=O)c1cc2c(s1)CCCC2,inactive
10,COc1ccc(OCC#CCN2CC(C)OC(C)C2)cc1 (centres undefined),"inconclusive [inhibitor, partial curve]"
11,O=C(COC(=O)c1nc(Cl)ccc1Cl)Nc1ccc(Cl)cn1,"inconclusive [inhibitor, full curve, poor fit]"
12,COc1ccc(OCC(=O)Nc2cccc(NC(=O)COc3ccc(OC)cc3)n2)cc1,"inconclusive [inhibitor, full curve]"
13,CC(C)CC(=O)O/N=C1\C(=O)N(Cc2ccc(Cl)cc2)c2ccc([N+](=O)[O-])cc21,"inconclusive [inhibitor, full curve, poor fit]"
14,Cc1ccn2c(CNCc3cnn(C)c3)c(C(=O)N3CCCCCC3)nc2c1,inactive
15,O=C1NC(c2ccccc2)=C(c2ccc3ccccc3n2)C(c2ccc(F)cc2)N1 (centres undefined),"inconclusive [inhibitor, full curve, poor fit]"
16,Cc1[nH]c2ccccc2c1Cc1nnc(SCCC#N)o1,"inconclusive [inhibitor, partial curve, poor fit]"
17,Cn1cccc1C(=O)NC(=O)CSc1nnc(C2CC2)n1-c1ccccc1,"inconclusive [inhibitor, full curve]"
18,CCc1ccccc1NC(=O)CNC(=O)CNC(=O)C1CCCCC1,"inconclusive [inhibitor, partial curve, poor fit]"
19,Cc1ccc(S(=O)(=O)n2nc(-c3cccnc3)nc2N)cc1,"inconclusive [inhibitor, full curve, poor fit]"
20,Cc1ccc(C)c(N2CCN(C(=O)c3ccc4c(c3)c(C)c(C)n4C)CC2)c1,"inconclusive [inhibitor, full curve, poor fit]"

row,Compound,Potency
1,CCC(=NCCN1CCNCC1)C1=C(O)CC(C)(C)CC1=O,"inconclusive [inhibitor, full curve, poor fit]"
2,CC1CN(c2ccc(C(F)(F)F)cc2[N+](=O)[O-])CCN1S(C)(=O)=O (centres undefined),"inconclusive [inhibitor, full curve, poor fit]"
3,CCCCCCn1nc(C(=O)OCC(=O)NC2CCS(=O)(=O)C2)c2ccccc2c1=O (centres undefined),"inconclusive [inhibitor, partial curve, poor fit]"
4,COc1ccccc1NC(=O)C(=O)N/N=C(\C)CC(=O)Nc1ccccn1,inactive
5,COc1ccc(C(=O)Nn2c(SCC(=O)NC3CCCC3)nc3ccccc3c2=O)cc1,"inconclusive [inhibitor, full curve, poor fit]"
6,O=C(CN1C2=NCCCN2c2ccccc21)c1cccs1,"inconclusive [inhibitor, partial curve, poor fit]"
7,O=C(/C=C/c1cccc(F)c1)Nc1cc(S(=O)(=O)N2CCOCC2)ccc1N1CCCC1,"inconclusive [inhibitor, partial curve, poor fit]"
8,O=C(NC1CCCCC1)c1cc(-c2cccs2)on1,"inconclusive [inhibitor, full curve, poor fit]"
9,CC(=O)c1c(N2CCOCC2)nc(=S)n(-c2ccc([N+](=O)[O-])cc2)c1C,"inconclusive [inhibitor, full curve, poor fit]"
10,O=[N+]([O-])c1ccc(N/N=C/c2c[nH]c3ccccc23)cc1,inactive
11,CCCCCOc1ccc(C)cc1CN(CCCl)CCCl,inactive
12,COCCN(C(=O)CSc1nn(-c2ccc(F)cc2)c(=S)s1)c1c(N)n(CC(C)C)c(=O)[nH]c1=O,"inconclusive [inhibitor, full curve]"
13,Cn1c2ccccc2c2cc(C(=O)OCC(=O)N3CC(=O)Nc4ccccc43)sc21,inactive
14,O=C(/C=C/c1ccc(Cl)cc1)NC(=S)NN1CCCCC1c1cccnc1 (centres undefined),"inconclusive [inhibitor, full curve]"
15,O=C(Oc1ccccc1N1C(=O)C2CCCCC2C1=O)c1ccc(Cl)cc1 (centres undefined),"inconclusive [inhibitor, single point]"
16,CC1(C)C(=O)C=C[C@]2(C)[C@H]3CC[C@@]4(C)[C@H](c5ccoc5)OC(=O)[C@H]5O[C@]54[C@]3(C)[C@H](O)C[C@@H]12,"inconclusive [inhibitor, full curve, poor fit]"
17,COc1cc2c(C(=O)N3CCN(c4ccc(C)cc4)C(C)C3)cn(CC(C)C)c(=O)c2cc1OC (centres undefined),inactive
18,CCOC(=O)[C@H]1[C@H]2COc3cc(OC)ccc3[C@@H]2N2C(=O)N(c3ccc(Br)cc3)C(=O)[C@@]12C,"inconclusive [inhibitor, full curve, poor fit]"
19,COc1ccc(C(=O)/C=C/C(=O)N(CC(=O)NC2CCCCC2)Cc2ccccc2OC)c(O)c1,inactive
